Measurements: the supplement of paper PMC3334620
Over roughly 33,000 sequences, “E-score (-0.5 to 0.5)” has its median near -0.056; the highest 2% begin near 0.38. This is one part of the list.

Biological target: Stb4 (UniProt P50104)
Experiment: PBM E-score (8-mer binding enrichment) (E-score (-0.5 to 0.5)); higher = stronger / more preferred TF binding; most listed sequences are background and not binding sites
Conditions: protein concentration: 200 nM; construct: GST-DNA-binding domain
How it was run: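 The E-score, a modified Wilcoxon-Mann-Whitney statistic, was computed by the Universal PBM Analysis Suite for every ungapped eight-base word pooled with its reverse complement. Scans behind it were normalised with masliner after bound GST-tagged yeast transcription factors were detected with fluorescent anti-GST. The proteins, at about 100-200 nM, had been applied to universal all-10-mer Agilent arrays made double-stranded by primer extension.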

Sequence | PBM E-score
ATCAGTGC | -0.117
GTAACCGA | 0.386
ATGAAGTG | -0.195
ACCTCCAG | -0.0534
CGACAGGC | -0.156
ACGGGTAG | 0.301
ATGTACGA | 0.0589
CAGGAACG | -0.144
AAAAGCGT | -0.116
AAGCTATC | 0.0536
GCCATGAC | -0.122
GTAATTCA | -0.045
TCTCACCA | -0.043
GCGGATCA | 0.196
CATATGCC | -0.0643
ATTTGCCA | -0.26
AGATAACT | -0.0589
CATCTTGC | -0.12
ACCGCAAT | 0.152
CCACAGCA | -0.125
ATGCTAAA | -0.212
CAAAAATC | -0.141
AGCGTAAA | -0.0609
AACACGCG | -0.0357
AAAATTTG | -0.174

Sequence | PBM E-score
GGTGCGTA | -0.131
ATGGTGTA | -0.232
GGAGCACA | -0.00639
AGCGCTCC | -0.039
GATGATAA | -0.0782
ATTCAAGG | -0.2
AACTGAGA | -0.239
CACAAGCA | -0.23
GGGCAACA | -0.129
ACCAGCGT | -0.3
CCCAATCG | 0.0319
AGCGTACA | -0.243
ATCATGGG | -0.125
AGAAGTTA | -0.217
CCCCCGAG | 0.352
AGGCCCGG | 0.203
AAGGGCCC | -0.0455
ATCACGCG | -0.0428
AAAAGGTG | -0.268
ATACTAGG | -0.0173
CACGTCCG | 0.136
AGAGTTTA | 0.0803
AGAGACAT | -0.0452
AGTGACGA | -0.081
CGGACGGA | 0.296

Sequence | PBM E-score
GGGGTTAA | 0.0779
ATGTTCCG | 0.448
AACCGGAT | 0.383
ACAATTAG | -0.0931
CCCGCACC | 0.236
GATCATCC | 0.188
GGTAAGAC | 0.0667
CTCAAATA | -0.146
ACAAGGCC | -0.116
CTGATTTA | 0.0124
AGCTGGAT | -0.0862
CTTATACA | -0.168
AAACTGGT | -0.0578
GACACTGA | 0.0091
CCTTGAAC | -0.122
ACCAATCC | 0.0776
GAGTGTAC | -0.0195
GTAGCACA | -0.22
AAAAGACC | -0.102
CATGCAAC | -0.089
CCAGCGAC | -0.216
CTAATAAC | -0.106
AGTATAGG | -0.0135
ATGCCGCC | 0.1
CTTGCATC | -0.0179

Sequence | PBM E-score
CTCGCGCC | 0.0929
AGCGACTA | -0.317
ACATCCTA | -0.319
CAAGGCTA | 0.0425
ACTCTTTA | -0.29
GTGCGTGA | 0.166
AATGCGTA | -0.107
AACAAAAA | -0.0828
AGGTTAGG | -0.0245
ACCCAGGT | -0.182
CGCAACTC | 0.0825
GCGAGTCA | -0.118
TAGCACCA | -0.101
CTTGCGAA | 0.00107
ATCGTCGG | 0.339
ACTCGTTC | 0.0661
ACTGCGTC | -0.289
ACGGAAAT | 0.357
GAACGCAA | 0.0345
ACAAATAG | 0.0571
CCCGTTTA | 0.0245
CACCCCAA | -0.141
AAATCGTT | -0.182
CCAGGCAG | -0.185
CCCTGCCA | 0.0573

Sequence | PBM E-score
CAGTCAGA | -0.283
CCGTATAA | 0.225
CCGGGGGC | 0.187
ACAGAGCT | -0.137
GACTATAC | -0.0767
ACGTTTTA | -0.135
TACCTTAA | -0.00825
GTGTAAAA | -0.0759
ATGCGGGA | 0.319
CTCCTATC | -0.106
ATTTTAAA | 0.0732
AAGTAGGT | -0.0424
GGTATTGA | 0.0621
AATACACT | -0.156
GCCTTTAC | -0.031
GGTCTATA | -0.115
CTTGCCAC | -0.138
GTTGGGCA | -0.0881
AGTGCTTA | -0.101
AGTGGGCC | -0.161
ATGTTCTG | -0.0519
CCATTCCG | 0.35
TCAAACAA | -0.0936
CTTTGAAC | -0.108
AAGTCAAG | -0.26

Sequence | PBM E-score
CGGATTGC | 0.308
AGCGCAAC | -0.00918
CACTTCAC | 0.00698
GGGTACCA | 0.0218
ATCGCCTA | -0.00638
ACAGAGTA | -0.158
ATCCAGAA | -0.183
GAGAAATA | 0.0451
AATAAGGC | -0.172
ATTAAGAA | -0.0469
GCATTAGC | -0.0519
CGGTCGAA | 0.123
ATTCTCCC | 0.117
GGACCTCC | -0.0205
CAGTCTGA | -0.171
CCTACACA | -0.00549
ACCCATCG | 0.089
ACTTTGCG | -0.165
ATGAGCAG | -0.235
ACCATCCG | 0.406
TCAGCTGA | -0.216
ATGCCGGG | 0.21
AGACAACG | 0.00381
CGGATGAG | 0.369
ACGGTAGA | -0.0117

Sequence | PBM E-score
AATTATAC | 0.148
AAAAGAGA | -0.116
CTGAGGTA | -0.0338
ACACATAT | -0.0896
CACTAAGG | -0.0799
CAATGACC | -0.0476
GCGTGATA | -0.137
AATAGCCG | 0.365
CATTGTTC | 0.0687
GCTATTGA | 0.0421
AAAGTGCC | 0.09
ACAGTGCA | 0.0226
CACGGATA | 0.385
ACTTCATA | -0.0493
AACTTTGC | -0.0308
CGAGTTTA | 0.121
GTTGCTTA | -0.114
AACATCCG | 0.45
GCGTGTTA | -0.228
CCAAATTA | -0.129
AAACCGAA | 0.259
CCCTAACG | -0.0999
CCACTTTA | -0.0638
ACTTTTGA | -0.157
ACCATCGC | -0.134

Sequence | PBM E-score
ACAATACG | -0.0698
ACACACTG | -0.217
CGACTTCA | 0.105
CTGCCAGC | -0.208
CCAGAGTA | -0.0737
ACTGCAAG | -0.0615
GGAGAGTA | 0.124
TCTTAGAA | 0.135
CACTTATA | -0.0137
CATGTAAG | -0.101
CTAAGGCC | -0.243
AATCCACT | -0.0867
GCCTCGCA | -0.288
ACGTGTCT | -0.0491
CCGAGGAA | 0.387
AGGATTGG | -0.223
CCCAACCG | 0.0985
CACAAGTA | -0.115
AGAAGCAA | -0.13
AACCGCTC | 0.0554
AGAGATCG | -0.0566
AAAGAGCG | -0.196
AACAAGCC | -0.183
GCCCCACA | -0.12
GCGGGTCC | 0.0973

Sequence | PBM E-score
GCTATTCC | 0.0156
CGTCCTTA | -0.0569
AATATAGG | -0.163
CGTGGGAC | -0.106
CTGGCTCA | -0.197
TCGAACAA | -0.141
ACATCTGG | 0.0485
GAAGGAGC | -0.203
GAATTGAC | -0.063
CCAGGGCG | -0.033
ATGCCTTG | -0.187
CTCCACGA | -0.208
CATATTCG | 0.147
GCGTATAA | 0.0211
GTAGACAA | -0.122
ATCTATAG | -0.103
ACATCAAG | -0.0909
CTGATCCA | -0.0972
CGCGCTCC | 0.0904
AACTCCGG | 0.352
GAGTGCTA | 0.0392
AGTTTGTC | -0.173
TGAACCAA | -0.121
AAATCAAA | -0.0179
ATCGCTAC | -0.136

Sequence | PBM E-score
ACGGTATG | -0.0571
AGTTACCG | 0.28
ACGTACTA | -0.194
CGATTCTC | 0.0534
GAGGGGAA | 0.249
CCTACTCC | -0.176
GACCCGCA | 0.174
GCGCTCCA | -0.0561
GGACTTGA | -0.0587
CGGACGAA | 0.259
ACGGGCCC | 0.163
ATTAAACC | 0.0482
ATTCTTGG | 0.16
AGACCCCT | -0.304
ATCAATGA | 0.0858
GGCCCACC | 0.0688
ATTGATGG | -0.0726
CGACGGAG | 0.195
CACCGGTG | 0.00925
CCGTTCAC | -0.0602
GAAGGTCA | -0.184
CCTACGAA | -0.00465
ACCTCCTC | -0.153
CTTGTGTA | -0.204
CCGAAAGA | 0.388

Sequence | PBM E-score
CGCATCGC | -0.124
CCCTTCTC | -0.235
GAATCTCC | 0.234
ATCCTCCG | 0.212
GACAATAA | -0.0334
CTAGTAAC | -0.144
CGACACTC | 0.144
ATCGTCGC | -0.205
CAGCGCGG | 0.148
GAGCCGGC | 0.307
TCATGAAA | 0.0361
AGTTTATG | -0.177
CAGTTCGG | 0.409
ATGTGTCG | 0.0218
CACCTCTC | -0.192
CTAAGATA | -0.101
CGTGAGCC | -0.0227
GTTTTCGA | -0.185
CATTGGTC | -0.103
CACAAATC | -0.11
GGGGTGGA | 0.0241
AACGAAAG | 0.0571
AAAGTTCC | 0.167
TCTACAAA | -0.147
ACTTGAGA | -0.21

Sequence | PBM E-score
AATGTAGT | -0.0222
AATCTTAT | 0.0503
AACATGTA | 0.003
ATCAATTA | 0.0663
ACTTTCCG | 0.383
AGCAATAC | -0.0735
AGGTGGCG | -0.0738
ACCTTGGG | -0.0307
TGTGTGAA | -0.0844
AAGACCTA | -0.00508
ACAGCGCC | 0.0113
ACAGGTCA | -0.155
CTCGGGTA | 0.478
AATACGGG | 0.0937
CGCCCGTC | 0.265
GTGTACTA | -0.101
GTCGGAAA | 0.453
GTAAGGTA | -0.0476
GCGCCGCC | 0.048
ATTCTACG | -0.00064
CAAGCTTG | -0.136
ATGCCCTG | -0.23
GATGCGTA | 0.0235
CAGTTCTC | -0.0853
AGAGGAAT | -0.217

Sequence | PBM E-score
AGACTTTC | -0.019
CTATCTCA | -0.0155
AAACCCCC | 0.0758
ACATAATC | 0.0836
ATGAGCCG | 0.183
GAGTTCCC | 0.137
AGAGTATA | -0.25
ACCTTCTG | -0.0806
AAGTCCCA | -0.199
AATATTCA | -0.0295
CAACAGTA | -0.154
CTGAGTGA | 0.00658
AGTAGATC | 0.143
GGGGCTCA | -0.212
AAAAAGCG | 0.0317
ACCGACAA | 0.273
GCTGTCGA | -0.107
CCCTATCC | 0.0715
CACTTACA | -0.102
AAAGAAAT | -0.183
CATTTGAG | -0.0761
CACTGCTG | -0.211
ATTCCCCG | 0.254
AATTTCAT | -0.114
CGGGACCA | 0.214

Sequence | PBM E-score
CTTAGCGA | -0.0967
GCGTTGCC | 0.197
AGCGCCTG | -0.0205
GACCATTA | 0.0444
ACTTACAC | -0.158
CAATGTCG | 0.0741
AATGAGTC | -0.183
AACAAGCG | 0.0118
TACCGAAA | 0.385
CCTTACAC | -0.169
TACACAGA | -0.281
AAGAAGCT | -0.257
ATGCTTAG | -0.3
TGAGCTAA | -0.15
AGAGACAA | -0.185
GATAGGCA | -0.114
CAAACTCC | 0.234
GGAGCTAA | -0.0109
AACATGGT | -0.108
